# Substitutions are numbered along the chain they refer to.
# B1: Anti-c-MET recombined Avimer monomer RecM07 (designed binder)
# chain: CAADEFQCNSTGRCIPVNWLCDGDNDCEDSSDEENCSAPASEPPCSLSLQ
# notes: Assayed protein also bears HA and 6His tags; also called C415
# B2: Anti-c-MET recombined Avimer monomer RecM02 (designed binder)
# chain: CESNEFQCQSTSRCIPLQWVCDGDNDCEDSSDEASCGCPGPGATSAPAASLQ
# notes: Assayed protein also bears HA and 6His tags; also called C410
# B3: Anti-c-MET Avimer monomer M26 (designed binder)
# chain: CQSFTEFECHSTGRCIPASWLCDGDNDCEDSSDESPANCATPAHTSLQ
# notes: Assayed protein also bears HA and 6His tags; also called C387
# B4: Anti-c-MET recombined Avimer monomer RecM09 (designed binder)
# chain: CESNEFQCRSTGRCIPVSWVCDGDNDCEDSSDEASCGDSHILPFGTPGPSTSLQ
# notes: Assayed protein also bears HA and 6His tags; also called C417
# B5: Anti-c-MET recombined Avimer RecM11 (dimer) (designed binder)
# chain: CLANEFTCRSTGRCIPLQWVCDGDNDCEDSSDEKGCGDSHILPGLEASGGSCPASQFPCRSTGRCIPAEWVCDGDNDCEDSSDEASRGDSHILPFSTPGPSTSLQ
# notes: Two A domains in one chain; Assayed protein also bears HA and 6His tags; also called C419
# B6: Anti-c-MET recombined Avimer RecM12 (dimer) (designed binder)
# chain: CESNEFQCQSTSRCIPLTWRCDGDNDCEDSSDEKSCSAPASEPPGLEASGGSCPASEFTCRSTGRCISQGWVCDGDNDCEDSSDESPAICATTGPTSLQ
# notes: Two A domains in one chain; Assayed protein also bears HA and 6His tags; also called RM12; C420
# B7: Anti-c-MET recombined Avimer RecM06 (dimer) (designed binder)
# chain: CQASDQFECKSTGRCIPLAWRCDGDNDCEDGSDESPAICGRPGLEASGGSCRANEFQCHSTGRCIPASWLCDGDNDCEDGSDEASCGRPGPGGTSAPAASLQ
# notes: Two A domains in one chain; Assayed protein also bears HA and 6His tags; also called C414
# B8: Anti-c-MET recombined Avimer RecM10 (dimer) (designed binder)
# chain: CRANEFQCHSTGRCIPASWLCDGDNDCEDSSDEAPDLCASAAPTSLQASGLEASGGSCHAPTQFECRSTGRCIPAAWVCDGDNDCEDGSDESPAICGRPGLGLGATSAPAASLQ
# notes: Two A domains in one chain; Assayed protein also bears HA and 6His tags; also called C418
# B9: Anti-c-MET Avimer monomer M08 (designed binder)
# chain: CQSSEFTCKSTERCIPLTWVCDGDNDCEDGSDEENCSQDPEFHKVSLQ
# notes: Assayed protein also bears HA and 6His tags; also called C135
# B10: Anti-c-MET Avimer monomer M23 (designed binder)
# chain: CAANEFQCHSTGRCIPLSWVCDGVNDCEDSSDETNCRAPTSEPKGSVSLQ
# notes: Assayed protein also bears HA and 6His tags; also called C384
# B11: Anti-c-MET Avimer monomer M27 (designed binder)
# chain: CVASEFTCRSTGRCIPESWRCDGDNDCEDSSDESPDLCSAPASEPPGSLQ
# notes: Assayed protein also bears HA and 6His tags; also called C388
# B12: Anti-c-MET Avimer monomer M25 (designed binder)
# chain: CESGEFQCHSTGRCIPASWLCDGDNDCEDGSDESQLCTAHTSLQ
# notes: Assayed protein also bears HA and 6His tags; also called C386
# B13: Anti-c-MET Avimer monomer M32 (designed binder)
# chain: B12 chain with E2Q, S3P, G4N
# notes: Assayed protein also bears HA and 6His tags; also called C393
# B14: Anti-c-MET Avimer monomer M22 (designed binder)
# chain: CPSGEFQCRSTNRCIPETWLCDGDNDCEDGSDEESCTPPTSLQ
# notes: Assayed protein also bears HA and 6His tags; also called C383
# B15: Anti-c-MET Avimer M34 (dimer) (designed binder)
# chain: CPSSQFTCHSTRRCIPQTWVCDGDNDCEDGSDETDCPPHTSLQKASSGGSCLANEFRCNSTGRCIPRAWLCDGDNDCEDSSDEKDCKQHTSLQ
# notes: Two A domains in one chain; Assayed protein also bears HA and 6His tags; also called C395
# B16: Anti-c-MET Avimer monomer M39 (designed binder)
# chain: CVSNEFPCQSTDRCIPRSWRCDGDNDCEDGSDEKDCSAPASEPPGSLSLQ
# notes: Assayed protein also bears HA and 6His tags; also called C400
# B17: Anti-c-MET Avimer monomer M28 (designed binder)
# chain: CGSSEFQCHSTGRCIPENWVCDGDDDCEDSSDEKSCTSAAPTSLQ
# notes: Assayed protein also bears HA and 6His tags; also called C389
# Biological target: T1, c-MET extracellular domain (ECD)/Fc chimera (human, UniProt P08581 25-932)
# T1 construct: Bought (R&D Systems, carrier free); also called c-MET ECD/Fc; c-MET-ECD/Fc fusion; not shown: immunoglobulin Fc domain
# Assay: binding ELISA on c-MET ECD/Fc, Q-pure
row,Binder,Kd [µM]
1,B1,0.0054
2,B2,0.344
3,B3,0.0058
4,B4,0.0516
5,B5,0.0003
6,B6,0.0003
7,B7,0.0007
8,B8,0.0039

# Biological target: T1, c-MET extracellular domain (ECD)/Fc …
# Assay: binding ELISA on c-MET ECD/Fc, NiNTA-pure
row,Binder,Kd [µM]
1,B1,0.0035
2,B9,0.13
3,B2,0.0203
4,B3,0.1
5,B10,0.138
6,B11,0.093
7,B12,0.074
8,B13,0.232
9,B4,0.0422
10,B14,0.066
11,B5,0.0011
12,B15,0.556
13,B16,0.086
14,B17,0.031
15,B6,0.0038
16,B7,0.0004
17,B8,0.002

# Biological target: T1, c-MET extracellular domain (ECD)/Fc …
# Assay: AlphaScreen competition with bn-HGF for c-MET ECD/Fc, Q-pure
row,Binder,IC50 [µM]
1,B1,0.013
2,B2,0.002
3,B3,0.016
4,B11,0.105
5,B12,0.029
6,B13,0.069
7,B4,0.052
8,B14,0.057
9,B5,0.001
10,B15,0.002
11,B16,0.085
12,B17,0.152
13,B6,0.00033
14,B7,0.002
15,B8,0.002

# Biological target: c-MET on A549 human lung adenocarcinoma cells (human, UniProt P08581)
# Assay: cell-based or functional assay
row,Binder,"IC50, inhibition of HGF-induced proliferation of serum-starved A549-SC cells (tritiated thymidine) [µM]"
1,B6,0.00032

# Biological target: T1, c-MET extracellular domain (ECD)/Fc …
# Assay: AlphaScreen competition with bn-HGF for c-MET ECD/Fc, NiNTA-pure
row,Binder,IC50 [µM]
1,B1,0.001
2,B9,0.08
3,B2,0.002
4,B3,0.013
5,B10,0.043
6,B11,0.042
7,B12,0.011
8,B13,0.02
9,B4,0.019
10,B14,0.034
11,B5,0.001
12,B15,0.003
13,B16,0.035
14,B17,0.03
15,B6,0.001
16,B7,0.001
17,B8,0.001

# — patent publication US20060177831A1 (published 2006)
